In paper PMC12136788:
The other results are listed elsewhere or left out.

B1: chr6:30743938:30744518:-|CDS|ENSG00000137331|control|control|control (ssRNA)
RNA: GGGAGUUCUACAGUCCGACGAUCUGGGGAACGACCCGACUCCAGAGGCCUCGACCUGACCUGUCUCCUGUUUUGUCUCCCCUUAGGUCCGGCGCCAGCUGCCAGUCGAGGAACCGAACCCAGCCAAAAGGCUUCUCUUUCUGCCAACAGAGGAUUGAGCAUCA
B2: chr5:178210945:178211047:+|3pUTR|ENSG00000197451|unk|FALSE|unique (ssRNA)
RNA: GGGAGUUCUACAGUCCGACGAUCCUGCUGCCGCUCUGCAGCCUGGACCUGUGGACCCUGGUUGUAAAGAGUAAAUUGUAUCUUAGGAAACCAGUGUCACCUUUUUUUCACCUUUUAAUUUUAUAUUAUUUGCGUCAUACAUUUCAACAGAGGAUUGAGCAUCA
B3: chr10:68442948:68443070:-|CDS|ENSG00000138346|unk|total|mutant (ssRNA)
RNA: GGGAGUUCUACAGUCCGACGAUCCCCAAUUGUGAUGCUGCCCAAAACCGAAGAAGAAACCCAGCAUCUGAAGCAAACACACUCCGAAUAUUUCAGCCUUUGGUGUCUAAUGUUAACCCUGGAGUCACAAUCGAAGGAUAAUAACAACAGAGGAUUGAGCAUCA
B4: ENSG00000163399:stop:overlap|stop_codon|ENSG00000163399|stop_codon|NA|stop_codon (ssRNA)
RNA: GGGAGUUCUACAGUCCGACGAUCUCAGAAAACUCAUCAUCAGGCGACGCCCUGGCGGCUGGGUGGAGAAGGAAACCUACUAUUAGCCCCCCGUCCUGCACGCCGUGGAGCAUCAGGCCACACACUCUGCAUCCGACACCCACCCAACAGAGGAUUGAGCAUCA
B5: ENSG00000070961:be:win_101|CDS|ENSG00000070961|bound_else_gene|NA|bound_elsewhere_windowed (ssRNA)
RNA: GGGAGUUCUACAGUCCGACGAUCUGCGGGCUCUCAUGGAGCUCAGGUCCACAGAUGCAUUACGAAAAAUACAGGAAAGCUAUGGAGAUGUCUAUGGAAUUUGCACCAAAUUGAAAACAUCUCCCAAUGAAGGUUUAAGUGGAACAACAGAGGAUUGAGCAUCA
B6: chr6:73641827:73641929:-|CDS|ENSG00000119899|unk|FALSE|unique (ssRNA)
RNA: GGGAGUUCUACAGUCCGACGAUCGAGAAAAGAGCUGCUCUGUGAAGGUCUUAAAGGAUUGUUUUAUUCUUUUCUGAUUUUUGUAGGGUAAGAAGUACCAAUGGGAUGCAGAAACUCAAGGAUGGAUUCUCGGUUCCUUUUUUUCAACAGAGGAUUGAGCAUCA
B7: chr1:183142599:183142700:+|CDS|ENSG00000135862|msi1|FALSE|unique (ssRNA)
RNA: GGGAGUUCUACAGUCCGACGAUCAACGAGAUUGAAGGCACCCUAAACAAAGCCAAAGAUGAAAUGAAGGUCAGCGAUCUUGAUAGGAAAGUGUCUGACCUGGAGAAUGAAGCCAAGAAGCAGGAGGCUGCCAUCAUGGACUAUCAACAGAGGAUUGAGCAUCA
B8: ENSG00000164609:stop:overlap|stop_codon|ENSG00000164609|stop_codon|NA|stop_codon (ssRNA)
RNA: GGGAGUUCUACAGUCCGACGAUCAGGCAUAUAGAAUGAAACGUCAGAGGCCAGAUGACCCCAUGGCCUCUUUCCUUGGACAGUAGCAACUAGUCAGAAGACCAUCCAAGAUAGAUGCAGCUGAUACAUUCUUUUCAGCUUCUUCAACAGAGGAUUGAGCAUCA
B9: chrX:47571900:47572933:-|three_prime_utr|ENSG00000008056|control|control|control (ssRNA)
RNA: GGGAGUUCUACAGUCCGACGAUCAAACCUGACUCCUCCUGGCCCUAAAUCCGGUUCUCACAUGUGGAAUCCCCAAGUCCUUUUAGAACCCCACUCGUGGUCACUUCAGGAUCUACUUCUGUUUUAGAACCUCCACAUUCCUGACAACAGAGGAUUGAGCAUCA
B10: chr1:203741488:203741589:+|3pUTR|ENSG00000058668|msi1|total|mutant (ssRNA)
RNA: GGGAGUUCUACAGUCCGACGAUCGCCAGUUCAUGUCCCUGACUCUCACCUCCCAUCCGAUAAAUGAAGCCCACCCCCCUUUCCCGAGUGAUGAGAGUCAAGAAGAGGGGAUGUAUGAACGGCCAAAUUCCCAUGUGAGAGGAACAACAGAGGAUUGAGCAUCA
B11: chr7:80742675:80742739:-|3pUTR|ENSG00000075223|msi1_unk|FALSE|overlapping (ssRNA)
RNA: GGGAGUUCUACAGUCCGACGAUCGUAGCUUGACAAUUCAGUGACUUAAUAUCUAUUCCAUUUGUAUUGUACAUAAAAUUUUCUAGAAAUACACUUUUUUCCAAAGUGUAAGUUUGUGAAUAGAUUUUAGCAUGAUGAAACUGUCAACAGAGGAUUGAGCAUCA
B12: ENSG00000198589:be:win_651|CDS|ENSG00000198589|bound_else_gene|NA|bound_elsewhere_windowed (ssRNA)
RNA: GGGAGUUCUACAGUCCGACGAUCUGCAUUACCUCCUAUAGCCAAAUGGCCAUACCAGAAUGGUUUUACAUUUCAUACAUGGCUUAGAAUGGAUCCUGUAAAUAACAUCAAUGUAGAUAAGGAUAAACCAUAUUUGUAUUGUUUCAACAGAGGAUUGAGCAUCA
B13: chr2:9584341:9584442:-|3pUTR|ENSG00000134308|msi1_unk|FALSE|overlapping (ssRNA)
RNA: GGGAGUUCUACAGUCCGACGAUCUUUCCAUGCAGAUUUGUGCACAUGUGAGAGGGUGUCCAGUUUGUCUAGUGAUUGUUAUUUAGAGAGUUGGACCACUAUUGUGUGUUGCUAAUCAUUGACUGUAGUCCCAAAAAAGCCUUGCAACAGAGGAUUGAGCAUCA
B14: chr22:20819776:20819877:-|CDS|ENSG00000241973|unk|total|mutant (ssRNA)
RNA: GGGAGUUCUACAGUCCGACGAUCUGUAACGUUUUCACUUGAUCUUCCCGAAUACCUUUGCAAGUAUGCUAUCCCAUGCCUGACCGGAAUCUCGCGAGCAUUUGGGCGUUACAGCAACAUGGAAGAGUCUCUCCUCUCAAAGCUCAACAGAGGAUUGAGCAUCA
B15: chr14:57493492:57493715:-|CDS|ENSG00000100557|control|control|control (ssRNA)
RNA: GGGAGUUCUACAGUCCGACGAUCGAGUCACUCUAAGACUCACCUUAGGGUGAUCAAAGUAGCACCUUUGCAAAACAAAGAGGUAGAGACUCCCUCGGCUGGCCGUGUGGACUUUGCAUUCAAUCAGAAUUUGGAAGAAAAGACCAACAGAGGAUUGAGCAUCA
B16: chrX:13662881:13662996:+|CDS|ENSG00000176896|unk|FALSE|unique (ssRNA)
RNA: GGGAGUUCUACAGUCCGACGAUCUCGAAUUCUCUGUCUUCCCAAGACGUUGCAAAACUCAGUGAAAUGAUUGUGCCUGAAAAUAGAGCCAUUCAAUUGAAACCUAAGGAAGAGCAUUUUGGGGAUGGUGACCCUGAAUCCACUCAACAGAGGAUUGAGCAUCA
B17: chr10:15076986:15077088:-|3pUTR|ENSG00000176244|unk|total|mutant (ssRNA)
RNA: GGGAGUUCUACAGUCCGACGAUCUUUUCCUUUAAGAAGAUACCCAGCCGUGGGAUUGCUGGGCCGAAUGGCCGUUCUAUUUUCCGUUCCAUGAGAAAUUUCCGUGCUGUUUUUCACCGAGGUUGUACUAAUUUACAUUCCCACCAACAGAGGAUUGAGCAUCA
B18: chr13:69700593:69701701:-|three_prime_utr|ENSG00000150361|control|control|control (ssRNA)
RNA: GGGAGUUCUACAGUCCGACGAUCUUGAAUGGCAAGAAUGAGAACUUCCAGAGAUGAAAACUCUUCAAGAACAAGGAUCUCUGUAGCGUUACCUACUGAUGUUGAAAGAGUUAGUAGAUCAAACAGAAUAGUAGGAAACAAGAACAACAGAGGAUUGAGCAUCA
B19: chr8:103442975:103443076:+|3pUTR|ENSG00000164934|msi1|FALSE|bound_elsewhere (ssRNA)
RNA: GGGAGUUCUACAGUCCGACGAUCGGACUAGAUUAAUUGCAAACAUUUUAGUUAUAUGUGUAGAGCUUUAUUGUUACUCCUUUUAGCUACCCUGAAAAAUGAUCCUUAAAGGUGGCCUAGUUGGUAAGACUGUUUUAUCCUUAACAACAGAGGAUUGAGCAUCA
B20: chr12:39369705:39369875:-|CDS|ENSG00000139116|unk|FALSE|unique (ssRNA)
RNA: GGGAGUUCUACAGUCCGACGAUCGGGUAUUAUUUCUCGAGCUGUUAAACACCUUUUUAAGAGUAUUGAAGAAAAAAAACACAUAGCAAUUAAAAAUGGGCUUCCUGCUCCAGAUUUUAAAGUGAAUGCCCAAUUCUUAGAGGUCAACAGAGGAUUGAGCAUCA
B21: chr2:105361111:105361195:-|3pUTR|ENSG00000115641|msi1_unk|total|mutant (ssRNA)
RNA: GGGAGUUCUACAGUCCGACGAUCCUUUCUCACCCAGGCAAUCUUGCCUUCUGGUUUCUUCCAGCCACAUUGAGACUUUCUUCCCGUGCUUUUCAGUGAUACUCACGUUUGCUUAAACCCUUCCGUGCUUUGUGACCGUUCAGUCAACAGAGGAUUGAGCAUCA
B22: chr1:6525536:6525637:-|3pUTR|ENSG00000162408|msi1|total|mutant (ssRNA)
RNA: GGGAGUUCUACAGUCCGACGAUCACAGUUUGUGUGCCAUUAAAACAGAGAUUCCUCAGAAAGUUCUUCAGGGACCUGGUUAUCCGAAUCAGGAUAAAAAUAAGGAAACUGGGGCCAUUACAAUGUACCGAGAAGGAAGGAAGACAACAGAGGAUUGAGCAUCA

Each binder was assayed against MSI1 full-length (mouse, UniProt Q61474 1-362) (assay: nsRBNS (natural sequence RNA bind-n-seq); RBNS binding buffer (assumed for nsRBNS): 25 mM Tris pH 7.5, 150 mM KCl, 3 mM MgCl2, 0.01% Triton X-100, 500 ug/ml BSA, 20 U/ml SUPERase-In, 4 C; UNK is unkempt and MSI1 is Musashi-1; names of the RNAs are library labels; protein concentration not given here; high values mean tight binding).
Sequence of UniProt Q61474 (Q61474 whole entry): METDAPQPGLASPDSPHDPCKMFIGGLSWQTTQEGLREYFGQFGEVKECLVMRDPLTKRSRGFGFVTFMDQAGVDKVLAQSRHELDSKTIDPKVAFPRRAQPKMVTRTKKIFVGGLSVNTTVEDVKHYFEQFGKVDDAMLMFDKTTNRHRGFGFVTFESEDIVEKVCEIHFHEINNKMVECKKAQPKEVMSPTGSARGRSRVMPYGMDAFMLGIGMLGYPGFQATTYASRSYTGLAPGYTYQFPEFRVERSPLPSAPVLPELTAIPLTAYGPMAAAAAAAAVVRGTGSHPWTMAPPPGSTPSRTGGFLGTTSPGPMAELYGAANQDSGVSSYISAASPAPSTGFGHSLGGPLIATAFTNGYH

| Binder | binding signal [enrichment R] |
| --- | --- |
| B1 | 0.66 |
| B2 | 2.32 |
| B3 | 0.373 |
| B4 | 0.528 |
| B5 | 0.327 |
| B6 | 0.359 |
| B7 | 0.53 |
| B8 | 0.347 |
| B9 | 0.863 |
| B10 | 0.579 |
| B11 | 6.36 |
| B12 | 1.07 |
| B13 | 0.576 |
| B14 | 0.3 |
| B15 | 0.37 |
| B16 | 0.249 |
| B17 | 0.339 |
| B18 | 4.13 |
| B19 | 12.3 |
| B20 | 4 |
| B21 | 0.426 |
| B22 | 0.386 |
